From the GPR68 mutational scans of Howard et al. (2025)

B1: GPR68, Q15743 (parent)
chain: MGNITADNSSMSCTIDHTIHQTLAPVVYVTVLVVGFPANCLSLYFGYLQIKARNELGVYLCNLTVADLFYICSLPFWLQYVLQHDNWSHGDLSCQVCGILLYENIYISVGFLCCISVDRYLAVAHPFRFHQFRTLKAAVGVSVVIWAKELLTSIYFLMHEEVIEDENQHRVCFEHYPIQAWQRAINYYRFLVGFLFPICLLLASYQGILRAVRRSHGTQKSRKDQIQRLVLSTVVIFLACFLPYHVLLLVRSVWEASCDFAKGVFNAYHFSLLLTSFNCVADPVLYCFVSETTHRDLARLRGACLAFLTCSRTGRAREAYPLGAPEASGKSGAQGEEPELLTKLHPAFQTPNSPGSGGFPTGRLA

Tests used:
[1] = variants of: B1; experiment: cAMP reporter score (Enrich2 score, wild type = 0); higher = more signal; HEK293T, FACS bins
[2] = variants of: B1; experiment: surface expression score (Enrich2 score, wild type = 0); higher = more signal; HEK293T, FACS bins

Variant | cAMP reporter score ([1]; pH 5.5) | cAMP reporter score ([1]; pH 6) | cAMP reporter score ([1]; pH 6, modulator: ogerin) | cAMP reporter score ([1]; pH 6.5, modulator: ogerin) | surface expression score [2]
V34L | -0.582 | -0.081 | -0.462 | -0.446 | -0.231
V34M | -0.195 | 0.116 | -0.216 | 0.278 | -1.42
V34N | -0.96 | -0.203 | -1.77 | -0.65 | -1.88
V34P | -1.46 | -1.02 |  | -1.09 | -1.77
V34Q | -1.74 | -1.59 | -1.65 | -1.13 | -2.06
V34S | -0.754 | -1.15 | -1.68 | -0.606 | -0.959
V34T | -0.972 | -1.28 | -1.21 | -0.271 | -2.29
V34W | -0.762 | -0.08 | -0.533 | -0.048 | -1.78
V34Y | -1.18 | -1.78 |  | -0.493 | 
V34_G35del | -1.48 | -1.66 | -1.12 | -1.41 | -2.6
V34_G35insG | -1.34 |  | -1.64 | -0.891 | -1.96
V34_G35insGS | -1.83 | -1.78 | -2.27 | -1.43 | -2.58
G35A | 0.048 | -0.504 | 0.221 | -0.686 | -1.1
G35C | -1.43 | -0.945 | -1.39 | -1.64 | -2.1
G35D | -0.889 | -0.429 | -0.995 | -0.832 | -1
G35E | -1.47 | -1.02 | -1.6 | -1.4 | -2.33
G35F | -0.893 | -0.529 | -0.844 | -0.178 | -2.63
G35H | -0.593 | -0.018 | 0.107 | 0.039 | -2.41
G35I | -0.302 | -0.386 | -0.708 | -0.386 | -2
G35K | -0.399 |  | -0.678 | -0.869 | -0.315
G35L | -1.62 | -1.02 | -1.88 | -1.32 | -2.28
G35M | -0.969 | 0.133 | -1.37 | -0.886 | -2.48

Variant | cAMP reporter score ([1]; pH 5.5) | cAMP reporter score ([1]; pH 6) | cAMP reporter score ([1]; pH 6, modulator: ogerin) | cAMP reporter score ([1]; pH 6.5, modulator: ogerin) | surface expression score [2]
G35N | -1.01 | -0.738 | 0.852 | 0.384 | -1.55
G35P | -1.41 | 1.91 | -1.36 | 1.82 | -2.88
G35Q | -1.74 | -1.43 | -2.73 | -0.977 | -1.66
G35R | 1.46 | -0.407 | -1.67 | -0.462 | 
G35S | -1.25 | -0.095 | -1.21 | -0.608 | 
G35T | -1.78 | -2.19 | -1.78 | -0.645 | -3.62
G35V | -1.61 | -1.6 | -1.46 | -1.37 | -1.78
G35W | -1.49 | -1.45 | -1.54 | -0.417 | -2.31
G35_F36del | -0.319 |  | -1.5 | -1.45 | -3.05
G35_P37del | -1.37 | -0.738 | -1.52 | -1.21 | -2.21
F36A | 0.331 | -0.172 | 0.234 | 0.148 | -1.47
F36C | -1.08 | -0.552 | -0.998 | -0.476 | -2.69
F36D | -1.18 | -1.46 | -1.39 | -0.862 | -2.19
F36E | -1.64 | -0.704 | -1.17 | -0.421 | -2.5
F36G | -0.865 | -0.753 | -1.37 | -1.11 | -2.51
F36H | -1.53 | -1.85 |  | -0.866 | -2.78
F36I | -0.775 | 0.958 | -1.1 | 1.13 | -1.52
F36K | -1.61 | -1.55 | -1.53 | -1.52 | -3.43
F36L | -0.697 | 0.077 | -0.426 | -0.097 | -0.455
F36M | 0.625 | -0.324 | -0.417 | -0.229 | 
F36N | -1.14 | -0.923 | -0.576 |  | -2.58
F36P | -1.48 | -0.011 |  | -0.472 | -2.56

Variant | cAMP reporter score ([1]; pH 5.5) | cAMP reporter score ([1]; pH 6) | cAMP reporter score ([1]; pH 6, modulator: ogerin) | cAMP reporter score ([1]; pH 6.5, modulator: ogerin) | surface expression score [2]
F36Q | -0.415 |  | -1.81 | -1.46 | -1.18
F36R | -1.44 |  |  | -1.21 | -2.21
F36T | -0.979 | 0.034 | -0.733 | -0.463 | -1.91
F36V | -0.162 |  | 0.869 | 2.74 | 0.127
F36W | -0.317 | -0.972 | -1.29 | -0.548 | 
F36Y | -1.41 | -0.518 | -1.67 | -1.33 | -1.68
F36_P37insG | -1.48 | -0.963 | -0.958 | -0.665 | -2.52
P37A | -0.945 | -0.021 | -0.759 | -0.754 | -1.88
P37C | 0.743 |  | 0.123 | -0.28 | -1.66
P37D | -1.32 |  | -1.37 | -1.23 | -2.04
P37E | -1.32 | -0.329 | -2.29 | -1.52 | 
P37F | -0.304 | -0.687 | -1.01 | -0.885 | -1.88
P37G | -0.375 | 0.323 | -0.539 | 0.304 | -2.21
P37H | -1.47 | -0.481 | -1.62 | -0.864 | -2.32
P37I | -1.42 | -1.72 | -1.57 | -1.19 | -2.15
P37K | -1.85 |  |  | -2.4 | -2.78
P37L | 0.124 | 0.372 | -0.36 | -0.374 | -2.19
P37M | -0.524 | -0.085 | -0.7 | -0.757 | -1.86
P37Q | -2.02 |  | -1.15 | -1.07 | -2.32
P37R | -1.03 | -1.27 | -1.4 | -0.802 | -2.62

The least precise scores are not listed. The source holds two more conditions with little spread; they are left out. Names with del lack the residues named; names with ins carry added residues between the positions named. For part of these data: How much ogerin was present is not stated here.
